About 17,000 (4.7%) of roughly 360,000 compounds were called active. This list was built around the results that the source calls inconclusive (neither active nor inactive); the mix of calls is not that of the screen. No stated cut-off is given here; in the data, active means activity change below about -50%; inconclusive means mostly about -30% to -49%; inactive means weaker than that.
assay: qHTS for Inhibitors of Inflammasome Signaling: IL-1-beta AlphaLISA Primary Screen; conditions: THP-1 LPS/ATP IL-1B secretion, 16 h; at 57.5 µM, active compounds read low
Outline: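 THP-1 cells pretreated 1 hr with compounds (up to 57.5 uM final), then stimulated with LPS (250 ng/mL final) plus ATP (1.25 mM final); secreted IL-1B measured by AlphaLISA after 16 hr, decreased signal indicating inhibition.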
On the % scale 0 is the no-effect control and ±100 the full control effect.

SMILES | activity change
CC(=O)Nc1cccc(-c2cc(-c3c(Cl)cccc3Cl)no2)c1 | inconclusive: -31.2%
CCOC(=O)c1c(C)oc2c1c(C=NCCO)c(O)c1ccccc12 | active: -112%
Cc1ccc(S(=O)(=O)Cn2nnnc2C(c2ccccn2)N2CCN(c3ccccc3)CC2)cc1 (stereo unspecified) | inconclusive: -30.5%
COc1ccc(C(=O)/C(=C/c2cccs2)c2nc3ccccc3o2)cc1 | inconclusive: -44.7%
COc1ccc(S(=O)(=O)N2CCOCC2)cc1NC(=O)C1CCCN1C(=O)c1cccs1 (stereo unspecified) | inactive: -19.1%
Cc1nn(-c2ccccc2)c2sc(C(=O)NC3CCCCC3)cc12 | inconclusive: -36.9%
CC(C)Nc1nc(Cl)nc(N(C#N)CN2C(=O)c3ccccc3S2(=O)=O)n1 | inconclusive: -41.4%
CCCCOc1ccc(C(=O)N2CCN(c3ncccn3)CC2)cc1 | inconclusive: -32.7%
CC(C)NC(=O)C1(C)CN(S(C)(=O)=O)CC(=O)N1CCc1ccccc1 (stereo unspecified) | inactive: 0%
CCOc1c(CNCCNC(=O)c2nonc2N)cccc1OC | inactive: -16.5%
O=c1[nH]c(C2CCN(S(=O)(=O)/C=C/c3ccccc3)CC2)nc2c1nnn2Cc1ccccc1 | inconclusive: -43.1%
Cc1cccc(S(=O)C(c2ccccc2)c2ccccc2)c1 (stereo unspecified) | inconclusive: -36.5%
CCOC(=O)c1[nH]c(C)c(C(=O)OCC(=O)N(Cc2ccccc2)C(C)C)c1C | inconclusive: -31.3%
CCN(CC)CCN(Cc1cc2cc3c(cc2[nH]c1=O)OCCO3)C(=S)NCCOC | inconclusive: -41.1%
CC(CCc1ccccc1)NC(=O)CCN1N=C(c2ccccc2)CCC1=O (stereo unspecified) | inconclusive: -31.4%
Cn1nc(-c2ccc(Cl)cc2)c2cc(C(=O)NCC3CCCO3)sc21 (stereo unspecified) | inconclusive: -30.6%
COc1cccc(/C=C2\Sc3ccc(C(=O)NCc4cccnc4)cc3N(C)C2=O)c1 | active: -81.8%
CCc1cnc(Nc2nc(C(N)Cc3ccc(Cl)cc3)cs2)nc1 (stereo unspecified) | inconclusive: -30.8%
CNCC(O)c1ccc(OC(=O)C(C)(C)C)c(OC(=O)C(C)(C)C)c1 (stereo unspecified) | inconclusive: -35.7%
N#CC(=C1C=C(Br)C(=NO)C=C1Cl)c1ccc(Cl)cc1 | inconclusive: -43.3%
COC(=O)C(Cc1c[nH]c2ccccc12)NC(=O)C1CC1 (stereo unspecified) | inactive: 8.64%
C[C@@]12C(=O)Nc3ccc(F)cc3C(=O)N1[C@H]1c3cc(Cl)ccc3OC[C@@H]1[C@@H]2c1ccccc1 | inconclusive: -48.2%

SMILES | activity change
O=C(N/N=C/c1cc(Br)c(O)c(Br)c1)c1cc2c(ccc3ccccc32)o1 | inactive: -22.9%
N#Cc1nc2ccccc2n1OCc1ccccc1 | inconclusive: -38.3%
Cc1cc(C)c(S(=O)(=O)N2CCCCC2)c(C)c1N(C)S(=O)(=O)c1ccccc1 | inconclusive: -46%
N#Cc1nc(COc2ccc(Cl)cc2)oc1N1CCCCCC1 | active: -58.5%
O=c1cc(O)n(-c2ccccc2F)c(=S)[nH]1 | inactive: -1.82%
CCCC1=C(C(=O)OCC)C(c2ccc(OC)c(C)c2OC)C(C#N)=C(N)O1 (stereo unspecified) | inactive: -4.97%
CCN(CC)C(=O)CN1C(=O)C(=O)c2ccccc21 | inactive: 10.4%
CCN(C[C@H]1N[C@@](Cc2ccccc2)(C(=O)OC)[C@H]2C(=O)N(C)C(=O)[C@@H]12)S(=O)(=O)c1ccc(OC(F)(F)F)cc1 | inactive: -27.2%
COc1ccc(-n2c(Cc3cccn3C)nnc2SCC(=O)Nc2cccc(F)c2)cc1 | inconclusive: -32.3%
CCCCn1c(CCC)nc([N+](=O)[O-])c1Sc1ccc(Cl)cn1 | inconclusive: -46.5%
CCN(CC)C(=O)C1=C(C)N(Cc2ccc(F)cc2)C(=O)C(CC(=O)NCc2cccc3ccccc23)C1 (stereo unspecified) | inconclusive: -30.2%
NS(=O)(=O)c1cccc(NC(=O)c2cccc3c(Br)cccc23)c1 | inactive: 3.94%
CC(C)(C)NC(=O)c1cccc(NC(=O)Cc2ccc(Br)cc2)c1 | inconclusive: -35.5%
CCOC(=O)C(C)(C)N(Cc1cccc(C)c1)S(=O)(=O)c1ccc(Cl)c([N+](=O)[O-])c1 | inconclusive: -35%
Cc1cc(NC(=S)N(Cc2ccc(Br)cc2)Cc2ccc(C(=O)O)cc2)ccc1Cl | inconclusive: -41%
O=S(=O)(NC1=NCCCCC1)c1ccc2sc(NS(=O)(=O)c3ccc4ccccc4c3)nc2c1 | active: -54.4%
CN(CCc1ccccn1)C(=S)Nc1ccc(Cl)c(Cl)c1 | inconclusive: -34.8%
Cc1ccc(NC(=O)C2CC2c2ccccc2)cc1 (stereo unspecified) | inconclusive: -47.4%
COc1cccc(C(=O)Nc2nnc(-c3cccs3)s2)c1 | inactive: 2.05%
Cc1ccc(OCC(=O)N2CCN(S(=O)(=O)c3ccc4c(c3)OCCO4)CC2)c(C)c1 | inconclusive: -40.1%
COc1cccc(Nc2ncnc3c2cnn3-c2cccc(C)c2)c1 | inconclusive: -41.4%
O=c1c(F)cn(C2CCCO2)c(=O)n1Cc1c(Cl)cccc1Cl (stereo unspecified) | inactive: 0%

SMILES | activity change
O=C(NCc1ccc(F)c(F)c1)c1ccc(-c2ccc(F)c(F)c2)c2ccoc12 | inconclusive: -49.1%
CC(C)(C)n1nc2c(c1NC(=O)c1ccc(Cl)c([N+](=O)[O-])c1)CS(=O)(=O)C2 | active: -97.5%
CC(NCc1ccccc1O)C12CC3CC(CC(C3)C1)C2 (stereo unspecified) | inconclusive: -44.3%
O=C(CCCSc1nc(-c2ccco2)cc(C(F)(F)F)n1)Nc1ccc2c(c1)OCO2 | inconclusive: -46.6%
Cc1ccc(NC(=O)c2ncn(CCCNCC3CCCCC3)n2)cc1C | inconclusive: -32.4%
Cc1cnc(Nc2nc3ccccc3o2)nc1C(=O)Nc1cccc(C(F)(F)F)c1 | inactive: 21.8%
O=C(CSc1ncnc2ccccc12)Nc1cccc(S(=O)(=O)N2CCOCC2)c1 | inconclusive: -32.3%
O=[N+]([O-])c1cc(C=NN2CCCCCC2)ccc1Cl | inconclusive: -44.8%
CSc1ccc(Cn2c(C)c(C(=O)NCc3ccc(F)cc3)sc2=O)cc1 | inconclusive: -46.5%
COc1cc(C(=O)OCC(=O)N(C)C)cc(NC(=O)c2ccco2)c1OC | inconclusive: -38.3%
CCOC(=O)c1c(C)[nH]c(C)c1C(=O)COc1ccc(NC(=O)c2ccco2)cc1 | inconclusive: -41.2%
Cc1cnc(C)c(Nc2nc(C(N)Cc3ccc(C(F)(F)F)cc3)cs2)n1 (stereo unspecified) | inconclusive: -42.5%
CNC(=O)/C=C1\NC(C)(C)Cc2c1ccc1ccccc21 | active: -67.2%
COc1cc(/C=C2/NC(=O)N(Cc3ccccc3F)C2=O)cc(OC)c1OC | inconclusive: -43.3%
CCN(CC)CCN1C(=O)C(=O)/C(=C(/O)c2c(C)[nH]c(C(=O)OC)c2C)C1c1ccc(OC)cc1 (stereo unspecified) | inconclusive: -38.7%
COc1ccc(NS(=O)(=O)c2cccc(C(=O)N/N=C/c3cn(-c4ccccc4)nc3-c3ccccc3)c2)cc1 | inconclusive: -49.2%
CCN(CC)C(=O)c1scc2c1OCCO2 | active: -56.1%
Cc1cc2ccccn2c1C(=O)c1ccc(NN)c([N+](=O)[O-])c1 | inconclusive: -46%
Fc1ccc2c(c1)Sc1ccc(Cl)cc1CC2N1CCN(CCC2OCCO2)CC1 (stereo unspecified) | active: -75.1%
CCn1c(SCC(=O)Nc2ccc3c(c2)OCCO3)nnc1-c1ccco1 | inconclusive: -42.1%
COc1ccc(Br)cc1CN1CCN(C(=O)c2cccc(OC)c2OC)CC1 | inconclusive: -31.1%
COc1cc(NC(=O)c2cccs2)ccc1NC(=O)c1ccco1 | inconclusive: -47%

SMILES | activity change
CC(C)OCCCN1C(=O)c2[nH]nc(-c3ccccc3O)c2C1c1cccc(Cl)c1 (stereo unspecified) | inconclusive: -42.5%
CCC(C)NC(=O)C1CCC(CNS(=O)(=O)c2cccc3nsnc23)CC1 (stereo unspecified) | inactive: 4.84%
COc1ccc(-c2cnc(N)nc2-c2ccc(OC)cc2O)cc1 | active: -72.7%
Brc1csc(/C=N/Nc2nc3ccccc3s2)c1 | inconclusive: -31.1%
CC1CCC(=C(C#N)C(=O)Nc2cccc(Cl)c2)CC1 (stereo unspecified) | active: -87.1%
CCOC(=O)c1nn(C)c(C)c1Cl | inactive: 18.5%
COc1cccc(CNC(=O)c2ccncc2)c1 | inactive: 18.4%
Cn1cnc([N+](=O)[O-])c1S(=O)(=O)c1cccc(Cl)c1 | inconclusive: -42%
Cc1cc(=O)[nH]c(-n2nc(C)cc2C)n1 | inactive: 15.5%
Cn1c(CCN2CCCCC2)nc2cc(NC(=O)COc3ccc([N+](=O)[O-])cc3)ccc21 | inconclusive: -33.2%
CC(=O)Nc1ccc(S(=O)(=O)/N=C2\C(=O)c3ccccc3C([O-])=C2n2cc[n+](-c3ccccn3)c2)cc1 | inactive: 63.4%
Oc1ccccc1N1CCN(Cc2ncc(-c3ccccc3)o2)CC1 | active: -52.8%
COc1ccccc1OCC(=O)NNC(=O)c1ccoc1C | inactive: -8.81%
Cc1ccc(C(=O)CSc2nnc(CNc3ccc(F)cc3)o2)cc1 | inactive: -5.03%
CCC(C(=O)NC1CCCC1)N(C(=O)Cn1nnc(-c2ccc(C)cc2)n1)C1CCCC1 (stereo unspecified) | active: -54.3%
COc1ccc(OC)c(/C=C/C(=O)c2ccc3c(c2)OCCO3)c1 | active: -101%
COc1ccccc1/C(C)=N/NC(=S)NCc1ccccc1 | inconclusive: -45.5%
CC(C)(C)C(=O)Nc1sc(-c2ccccc2)cc1C(=O)O | active: -77.7%
CCn1c(NC(=O)c2ccc(C)cc2)c2ccccc2nc1=O | inconclusive: -43.1%
CCCCCCn1c(=O)n2n(c1=O)[C@@H]1CN(S(=O)(=O)c3ccc(C)cc3)C[C@]1(O)[C@@H](OC(=O)NCc1ccc(OC)c(OC)c1)C2 | inconclusive: -34.2%

From PubChem BioAssay AID743279 (National Center for Advancing Translational Sciences (NCATS), 2014)
